The source of these data is ChEMBL document CHEMBL4888484, “Replenishing the malaria drug discovery pipeline: Screening and hit evaluation of the MMV Hit Generation Library 1 (HGL1) against asexual blood stage Plasmodium falciparum ,using a nano luciferase reporter read-out” (2022).

Molecules are shown by their SMILES. Among all 150,000 compounds or so, about 540 (0.36%) showed an effect of 50% or more. The list shows a part of the results.

In the experiment the test system is Plasmodium falciparum. As to the kind of experiment: Primary screen in NF54 nanoGlo assay, in single point, at 2uM, 72h; a lower Z score goes with more inhibition. Conditions: timepoint 72 hour. The format is functional, Erythrocyte.
As for `CCC[C@H](N)C(=O)N(C)C1CCCCCC1`, the “% Inhibition” value is reported as -12% and the Z score came to 1.73.
For the compound `CN(CC(=O)NC1CC1)c1nc2c(Cl)cccc2s1`, the “% Inhibition” value was -10% and the Z score was found to be 1.56.
Taken in the same sequence, the figures for `COC(=O)CC1=NN(c2nc(C)cc(C)n2)C(=O)C1` were -2% and 0.24.
Taken in the same sequence, the figures for `CC1(C)CC[C@H](CS(=O)(=O)N2CCC=C(F)C2)OC1` were -2% and 0.47.
Consider `N#CCN1CCN(C2CC2)c2ccc(F)cc21`, for which the “% Inhibition” value is -9% and the Z score came out at 0.82.
Taken in the same sequence, the figures for `O=C(Nc1ccc2c(c1)CCC2)N1CCC[C@H]1CO` were 3% and -0.58.
Taken in the same sequence, the figures for `c1ccc(CN2CC(c3nc(-c4cnccn4)no3)C2)cc1` were -15% and 2.88.
For `C[C@H](C(=O)NCCN1CCOCC1)C1CCN(C(=O)c2cc3ccccc3[nH]2)CC1`, in that order: -13% and 1.17.
Regarding `COCc1nc(C)c(C(=O)NC(C)(C)CCCNC(=O)OC(C)(C)C)s1`, the “% Inhibition” value is listed as 1% and the Z score is reported as -0.19.
Regarding `CNC(=O)COc1ccc(OCc2ccnc(N(C)C)c2)cc1`, the “% Inhibition” value is -14% and the Z score came to 1.94.
Taken in the same sequence, the figures for `C[C@@H](C(=O)N1CCOCCNC(=O)CC1)c1ccccc1` were -12% and 1.36.
Taken in the same sequence, the figures for `Cc1ncccc1CNC(=O)N1Cc2ccccc2C[C@@H]1C` were 4% and -0.51.
Taken in the same sequence, the figures for `O=C1C[C@]2(CC2(c2ccccc2)c2ccccc2)C(=O)N1c1cccc(Br)c1` were 19% and -3.6.
With `COc1ccc(-c2n[nH]c(C3CC3)c2NC(=O)Nc2ccc(F)cc2F)cc1OC`, the “% Inhibition” value is reported as -5% and the Z score is recorded as 0.85.
In the case of `CN(c1ccc2ccccc2n1)S(=O)(=O)C[C@H]1CCCO1`, the “% Inhibition” value is listed as -2% and the Z score is 0.28.
For `Cc1noc(C)c1CN(C)C(=O)c1ccc(-c2cnn(C)c2N)cc1`, in that order: 6% and -0.82.
For `CCCOc1ccc(CN[C@H]2CCCc3c(OC)cccc32)cn1`, in that order: -3% and 0.42.
For `Cc1cc(NCCOCC(F)(F)F)c(C(N)=O)cc1F`, in that order: -17% and 2.82.
With `COCCN1C(=O)C[C@](CC(=O)N2CCN(Cc3ccncc3)CC2)(c2ccccc2C)C1=O`, the “% Inhibition” value is -12% and the Z score came out at 1.86.
Taken in the same sequence, the figures for `Cc1cn2cc(CC(=O)N[C@@H]3CCCc4cccnc43)nc2s1` were -14% and 2.19.
As to `Cc1ccc2[nH]c(C(=O)N3CC[C@H](O)CC(C)(C)C3)cc2c1C`, the “% Inhibition” value was -2% and the Z score came to 0.28.
Taken in the same sequence, the figures for `CCCn1cc(C(=O)N(C)CC2(C)COC2)c(C)n1` were -3% and 0.5.
Take `Cn1cc(N)c(Oc2ccc(F)cc2F)n1`: the “% Inhibition” value is 37% and the Z score was -0.93.
Taken in the same sequence, the figures for `O=C(Nc1cnns1)c1cncc(Br)c1` were 5% and -0.78.
For `CCC(=O)Cn1nc(CC)c(CC)c(C#N)c1=O`, in that order: -11% and 1.31.
Taken in the same sequence, the figures for `O=C(NCc1ccco1)c1[nH]nc2c1CN(C(=O)Cc1ccc(Cl)c(Cl)c1)CC2` were -15% and 1.77.
As for `COc1cccc(-c2ccc(N3CCN(C(=O)CN(CC(C)C)C(=O)C4CCC4)CC3)nn2)c1`, the “% Inhibition” value is given as -12% and the Z score came to 1.76.
For `CCOc1ccc(C(=O)NCC(=O)Nc2ccc3c(c2)OCCCO3)cc1`, in that order: -8% and 0.91.
Turning to `O=C(NC1CCCCCC1)c1nc(N2CCCC2)c2ccccc2n1`, the “% Inhibition” value is on record as -5% and the Z score was 0.9.
For `COc1cc2c(cc1OC)CN(C(=O)c1ccc3c(c1)OCCO3)CC2`, in that order: 7% and -1.16.
For `Cc1ccc(NC(=O)[C@@H]2CCN(c3cccc(C)c3C)C2=O)cc1`, in that order: -6% and 0.57.
For `Cc1ncsc1C(=O)NCCN1c2cc(F)ccc2N(C)S1(=O)=O`, in that order: 13% and -1.67.
Consider `Cc1cccc(CN2CC[C@]3(O)CCN(C(=O)C4CCCC4)C[C@@H]3C2)n1`, for which the “% Inhibition” value is given as -2% and the Z score was found to be 0.22.
Taken in the same sequence, the figures for `C=CCCC(=O)N(CCN1CCCS1(=O)=O)c1cccc(F)c1` were -13% and 1.33.
Taken in the same sequence, the figures for `Cc1ccc2nc(-c3ccc(NC(=O)c4cccc5ccccc45)cc3)oc2c1` were -32% and 3.75.
Take `O=C(Nc1nccs1)C1CCC(Cn2cnnn2)CC1` (stereo unspecified): the “% Inhibition” value was -15% and the Z score was 1.88.
Taken in the same sequence, the figures for `O=C(C1CCCCC1)N1CC2CCC2(Nc2ncccn2)C1` (stereo unspecified) were -8% and 1.06.
Taken in the same sequence, the figures for `Cc1ncnc(N2CCN(Cc3nncn3C(C)C)CC2)c1C` were 10% and -1.85.
Taken in the same sequence, the figures for `O=C(COc1ccccc1N1C(=O)c2ccccc2C1=O)c1ccc(Cl)cc1` were 2% and -0.28.
As to `Cc1nc2c(c(N3CCCC3)n1)CCN(C(=O)CNC(N)=O)C2`, the “% Inhibition” value worked out at 2% and the Z score is -0.4.
As to `CCc1onc(C)c1NC(=O)Nc1ccc(C(C)=O)c(Cl)c1`, the “% Inhibition” value is -1% and the Z score stood at 0.13.
For `Cc1ccc2nc(CN(Cc3nccn3C)C3CC3)[nH]c2c1`, in that order: -10% and 1.05.
For `Cn1cc(C2CCCN2CC(O)COCC2CCCO2)cn1` (stereo unspecified), in that order: 0% and 0.03.

For orientation: % Inhibition means the change of the read-out against control, counted positive when it falls.
